# Laboratory results: ChEMBL document CHEMBL5606460, “ASAP - DENV-2 NS2B-NS3 protease fluorescence single point” (2024)
# Screen size: about 2,000 compounds; about 110 (5.5%) showed an effect of 50% or more. The list shows a part of the results.
# Molecular target: Genome polyprotein (dengue virus type 2) (UniProt P29990)
# [1] = Thailand/16681/1984, Concentration 25.0 uM, Number of replicates 1.0
structure (smiles),measurement,setting,value
Cc1c(Br)cccc1NC(=O)C1CCN(c2ccc(C=O)cc2)CC1,inhibition,[1],13%
Cc1cc(CO)c2cccc(C[C@H](NC(=O)C3(C(N)=O)CC3)C(=O)O)c2n1,inhibition,"Thailand/16681/1984, Concentration 49.95 uM, Number of replicates 2.0, Standard deviation 0.8046436923600346 %",2.75%
same,inhibition,"Thailand/16681/1984, Concentration 99.9 uM, Number of replicates 2.0, Standard deviation 0.0905307562518242 %",9.53%
Cc1cnccc1NC(=O)c1c(C)nn(Cc2ccccc2)c1Cl,inhibition,"Thailand/16681/1984, Concentration 49.5 uM, Number of replicates 2.0, Standard deviation 0.09966271391867962 %",1.84%
same,inhibition,"Thailand/16681/1984, Concentration 99.01 uM, Number of replicates 2.0, Standard deviation 2.3644611293467452 %",2.97%
same,inhibition,"Thailand/16681/1984, Concentration 198.0 uM, Number of replicates 2.0, Standard deviation 3.1665773594952786 %",6.07%
COC(=O)c1cccc(C(=O)Nc2ccncc2C)c1,inhibition,"Thailand/16681/1984, Concentration 49.5 uM, Number of replicates 2.0, Standard deviation 0.22567664905073445 %",-4.08%
same,inhibition,"Thailand/16681/1984, Concentration 99.01 uM, Number of replicates 2.0, Standard deviation 0.2045809712592737 %",-3.74%
same,inhibition,"Thailand/16681/1984, Concentration 198.0 uM, Number of replicates 2.0, Standard deviation 1.3054913833669988 %",-2.98%
C[C@@H]1CN(CCNC(=O)C2CCN(c3ccc(C=O)cc3)CC2)C[C@H](C)O1,inhibition,[1],12.7%
c1ccc2c(CN3CCC(n4cccn4)CC3)c[nH]c2c1,inhibition,"Thailand/16681/1984, Concentration 49.5 uM, Number of replicates 2.0, Standard deviation 0.2206074895296473 %",-0.302%
same,inhibition,"Thailand/16681/1984, Concentration 99.01 uM, Number of replicates 2.0, Standard deviation 0.9760334935813729 %",0.283%
same,inhibition,"Thailand/16681/1984, Concentration 198.0 uM, Number of replicates 2.0, Standard deviation 0.9595395140774529 %",1.19%
C[C@H](NC(=O)C1CCN(c2ccc(C=O)cc2)CC1)c1ccc2c(c1)CCCC2,inhibition,[1],4.81%
COc1ccccc1N1CCN(C(=O)c2ccccc2Cc2cccc3c(CO)cc(C)nc23)CC1,inhibition,"Thailand/16681/1984, Concentration 49.95 uM, Number of replicates 2.0, Standard deviation 1.123252962265532 %",6%
same,inhibition,"Thailand/16681/1984, Concentration 99.9 uM, Number of replicates 2.0, Standard deviation 0.9888648698028478 %",14.1%
NCc1cccc(NC(=O)C2CCN(C(=O)OCc3ccccc3)CC2)c1,inhibition,"Thailand/16681/1984, Concentration 49.5 uM, Number of replicates 2.0, Standard deviation 1.518934319581567 %",-7.14%
same,inhibition,"Thailand/16681/1984, Concentration 99.01 uM, Number of replicates 2.0, Standard deviation 1.7880722930545534 %",-7.66%
same,inhibition,"Thailand/16681/1984, Concentration 198.0 uM, Number of replicates 2.0, Standard deviation 0.44046524984455854 %",-6.74%
Cc1cnccc1NC(=O)c1ccccc1-n1cccn1,inhibition,"Thailand/16681/1984, Concentration 49.5 uM, Number of replicates 2.0, Standard deviation 2.8850068243548517 %",-2.9%
same,inhibition,"Thailand/16681/1984, Concentration 99.01 uM, Number of replicates 2.0, Standard deviation 1.9964208553959129 %",-2.29%
same,inhibition,"Thailand/16681/1984, Concentration 198.0 uM, Number of replicates 2.0, Standard deviation 2.4957676128337067 %",-1.41%
COc1cc(C(=O)NCc2cccnc2)nc(N2CCNCC2)n1,inhibition,"Thailand/16681/1984, Concentration 49.5 uM, Number of replicates 2.0, Standard deviation 0.35920325992985613 %",-2.77%
same,inhibition,"Thailand/16681/1984, Concentration 99.01 uM, Number of replicates 2.0, Standard deviation 0.5911788397842407 %",-1.14%
same,inhibition,"Thailand/16681/1984, Concentration 198.0 uM, Number of replicates 2.0, Standard deviation 2.03373169021497 %",0.395%
CC(C)Nc1nc2ccc(C(=O)Nc3cnn(C)c3)cc2[nH]1,inhibition,"Thailand/16681/1984, Concentration 49.5 uM, Number of replicates 2.0, Standard deviation 2.031825556844216 %",-4.41%
same,inhibition,"Thailand/16681/1984, Concentration 99.01 uM, Number of replicates 2.0, Standard deviation 2.329776970420584 %",-3.9%
same,inhibition,"Thailand/16681/1984, Concentration 198.0 uM, Number of replicates 2.0, Standard deviation 2.6735671278500064 %",-0.813%
CNC(=O)c1cc(Cl)ccc1NS(=O)(=O)Cc1cc(C)no1,inhibition,"Thailand/16681/1984, Concentration 49.5 uM, Number of replicates 2.0, Standard deviation 3.304459257112122 %",-9.4%
Nc1ccc(-c2ccc3c(c2)OB(O)CC3)cn1,inhibition,"Thailand/16681/1984, Concentration 49.5 uM, Number of replicates 2.0, Standard deviation 0.9472183886774751 %",2.94%
same,inhibition,"Thailand/16681/1984, Concentration 99.01 uM, Number of replicates 2.0, Standard deviation 0.32641149450183415 %",6.03%
same,inhibition,"Thailand/16681/1984, Concentration 198.0 uM, Number of replicates 2.0, Standard deviation 0.22333379003571086 %",8.96%
Cc1nc(CNC(=O)c2[nH]c([C@H]3CCCNC3)nc2C)c[nH]1,inhibition,"Thailand/16681/1984, Concentration 49.5 uM, Number of replicates 2.0, Standard deviation 1.3308066666541125 %",-0.795%
same,inhibition,"Thailand/16681/1984, Concentration 99.01 uM, Number of replicates 2.0, Standard deviation 0.19197328416791432 %",0.241%
same,inhibition,"Thailand/16681/1984, Concentration 198.0 uM, Number of replicates 2.0, Standard deviation 0.41151993225218636 %",1.17%
Cc1cc(CO)c2cccc(NC(=O)CNC3CC3)c2n1,inhibition,"Thailand/16681/1984, Concentration 49.95 uM, Number of replicates 2.0, Standard deviation 1.6119901778213759 %",15.9%
same,inhibition,"Thailand/16681/1984, Concentration 99.9 uM, Number of replicates 2.0, Standard deviation 1.4451149573517064 %",30.7%
Cc1cc(CO)c2cccc(NC(=O)[C@H]3CCNC3)c2n1,inhibition,"Thailand/16681/1984, Concentration 49.95 uM, Number of replicates 2.0, Standard deviation 1.8979597481282788 %",-0.539%
same,inhibition,"Thailand/16681/1984, Concentration 99.9 uM, Number of replicates 2.0, Standard deviation 1.976292784952565 %",2.99%
CC(C)Oc1cc(COc2cccnc2F)nc(N2CCNCC2)n1,inhibition,"Thailand/16681/1984, Concentration 49.5 uM, Number of replicates 2.0, Standard deviation 3.358190925579508 %",-4.73%
same,inhibition,"Thailand/16681/1984, Concentration 99.01 uM, Number of replicates 2.0, Standard deviation 3.5388488398618163 %",-4.38%
same,inhibition,"Thailand/16681/1984, Concentration 198.0 uM, Number of replicates 2.0, Standard deviation 3.6589908549859094 %",-2.78%
O=C(c1c[nH]c2ccccc12)N1CCC(c2c[nH]c3cccnc23)CC1,inhibition,"Thailand/16681/1984, Concentration 49.5 uM, Number of replicates 2.0, Standard deviation 2.729734715573928 %",-3.41%
same,inhibition,"Thailand/16681/1984, Concentration 99.01 uM, Number of replicates 2.0, Standard deviation 2.915126500660707 %",-2.5%
same,inhibition,"Thailand/16681/1984, Concentration 198.0 uM, Number of replicates 2.0, Standard deviation 2.8556732921408456 %",0.248%
Cc1cc(CO)c2cccc(Cc3cccc(C(=O)NCC4CCOCC4)c3)c2n1,inhibition,"Thailand/16681/1984, Concentration 49.95 uM, Number of replicates 2.0, Standard deviation 2.974500515252217 %",-4.55%
same,inhibition,"Thailand/16681/1984, Concentration 99.9 uM, Number of replicates 2.0, Standard deviation 0.6848752879745666 %",-1.14%
